{
  "source": "the supplement of paper PMC9446081",
  "note": "Out of some 39,000 compounds screened, about 220 (0.56%) showed activity. The list shows a part of the results.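 Note: static incubation at 37 °C against the wild-type strain, values averaged over two biological replicates.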",
  "data": [
    {"test_system": "Escherichia coli K-12 BW25113", "assay": "relative growth (OD600 normalised to plate interquartile mean) (fraction); higher = less growth inhibition, active = 0.2 or less", "conditions": "50 µM; LB; incubation time: overnight (16-24 h)", "values": [
      {"smiles": "C[C@H](C(=O)N(C)C[C@@H]1OCc2ccccc2-c2c(n(C)c3ccccc23)C(=O)N([C@@H](C)CO)C[C@@H]1C)c1ccccc1", "relative growth": "inactive: 0.994"},
      {"smiles": "O=S1(=O)CC[C@H](N[C@H]2CCS(=O)(=O)C2)C1", "relative growth": "inactive: 0.984"},
      {"smiles": "C[C@@H]1CN([C@@H](C)CO)C(=O)c2cccc(NS(=O)(=O)c3ccccc3)c2O[C@H]1CN(C)S(=O)(=O)c1cccs1", "relative growth": "inactive: 0.991"},
      {"smiles": "O=C(NCC(F)(F)F)[C@@H]1[C@@H](CO)[C@@H]2Cn3c(cccc3=O)[C@@H]2N1C(=O)C1CCC1", "relative growth": "inactive: 1"},
      {"smiles": "COc1ccc(-c2cnc3c(c2)C(=O)N([C@@H](C)CO)C[C@@H](C)[C@H](CN(C)C(=O)Cc2cccnc2)O3)cc1", "relative growth": "inactive: 1.02"},
      {"smiles": "Cc1ccc(S(=O)(=O)N(C)C[C@H]2Oc3ccc(NC(=O)Cn4cnnn4)cc3CC(=O)N([C@@H](C)CO)C[C@@H]2C)cc1", "relative growth": "inactive: 1.01"},
      {"smiles": "CCS(=O)(=O)Nc1ccc2c(c1)C(=O)N(C)C[C@@H](OC)[C@@H](C)CN(Cc1ccccn1)[C@@H](C)CO2", "relative growth": "inactive: 1.01"},
      {"smiles": "CN(C)C(=O)C[C@H]1C=C[C@H](NC(=O)C2CCOCC2)[C@H](CO)O1", "relative growth": "inactive: 1.01"},
      {"smiles": "COc1ccc2[nH]c3c(-c4cccc5ccccc45)nccc3c2c1", "relative growth": "inactive: 1"},
      {"smiles": "Cc1noc(C)c1S(=O)(=O)Nc1ccc2c(c1)CC(=O)N([C@H](C)CO)C[C@H](C)[C@@H](CN(C)Cc1ccc3c(c1)OCO3)O2", "relative growth": "inactive: 0.991"},
      {"smiles": "O=C(NCCCN1CCOCC1)[C@@H]1[C@@H](CO)[C@@H]2Cn3c(cccc3=O)[C@H]1N2C(=O)C1CCCCC1", "relative growth": "inactive: 1.01"},
      {"smiles": "C[C@H]1CCCCO[C@H](CN(C)S(=O)(=O)c2ccc(Cl)cc2)[C@@H](C)CN([C@@H](C)CO)C(=O)c2cc(NC(=O)Cc3ccccc3)ccc2O1", "relative growth": "inactive: 1.03"},
      {"smiles": "COc1ccc(S(=O)(=O)Nc2ccc3c(c2)CC(=O)N([C@@H](C)CO)C[C@@H](C)[C@@H](CN(C)S(=O)(=O)c2cccs2)O3)cc1", "relative growth": "inactive: 1.03"},
      {"smiles": "NNC(=O)c1ccc(CN2CCCCC2)o1", "relative growth": "inactive: 1.01"},
      {"smiles": "Cc1cc(C)c(S(N)(=O)=O)cc1S(N)(=O)=O", "relative growth": "inactive: 1.01"},
      {"smiles": "CO[C@H]1CN(C)C(=O)c2cc(NC(=O)NC(C)C)ccc2OC[C@@H](C)N(Cc2ccc(-c3ccccn3)cc2)C[C@H]1C", "relative growth": "inactive: 1.02"},
      {"smiles": "Cc1ccc(S(=O)(=O)Nc2ccc3c(c2)C(=O)N([C@H](C)CO)C[C@H](C)[C@@H](CN(C)C(=O)Nc2ccc(C(F)(F)F)cc2)O3)cc1", "relative growth": "inactive: 0.995"},
      {"smiles": "CCC(=O)N[C@H]1CC[C@H](CC(=O)OC)O[C@@H]1CO", "relative growth": "inactive: 1.02"},
      {"smiles": "C#CCN1CCS(=O)(=O)CC1", "relative growth": "inactive: 0.986"},
      {"smiles": "C[C@@H]1CN([C@@H](C)CO)C(=O)c2cc(NC(=O)C3CCCCC3)ccc2O[C@@H](C)CCCCO[C@@H]1CN(C)C(=O)Nc1cccc2ccccc12", "relative growth": "inactive: 1.01"},
      {"smiles": "CN1C(=O)C[C@H](C(=O)O)[C@H]1c1cccnc1", "relative growth": "inactive: 0.882"},
      {"smiles": "C[C@@H]1CCCCO[C@H](CN(C)C(=O)CCC(F)(F)F)[C@H](C)CN([C@H](C)CO)C(=O)c2cc(NC(=O)C3CCCCC3)ccc2O1", "relative growth": "inactive: 1.02"},
      {"smiles": "Cc1noc(C)c1NC(=O)N(C)C[C@@H]1Oc2ccc(NC(=O)Nc3cccc4ccccc34)cc2CC(=O)N([C@H](C)CO)C[C@@H]1C", "relative growth": "inactive: 0.996"},
      {"smiles": "O=C1OC(CN2CCOCC2)CN1N=Cc1ccc([N+](=O)[O-])o1", "note": "(stereo not drawn)", "relative growth": "inactive: 0.575"},
      {"smiles": "C[C@@H]1CCCCO[C@H](CN(C)S(=O)(=O)c2ccc(F)cc2)[C@H](C)CN([C@@H](C)CO)C(=O)c2cc(NC(=O)Nc3ccc(C(F)(F)F)cc3)ccc2O1", "relative growth": "inactive: 1.02"},
      {"smiles": "C[C@H]1CN([C@@H](C)CO)C(=O)CCCn2cc(nn2)CO[C@H]1CN(C)Cc1cccc2c1OCCCO2", "relative growth": "inactive: 1"},
      {"smiles": "C[C@@H]1CCCCO[C@H](CN(C)Cc2ccccc2)[C@H](C)CN([C@H](C)CO)C(=O)c2cc(NS(=O)(=O)c3ccccc3)ccc2O1", "relative growth": "inactive: 0.964"},
      {"smiles": "C[C@@H]1CN([C@@H](C)CO)C(=O)c2c(c3ccccc3n2C)-c2ccccc2CO[C@H]1CN(C)C(=O)Nc1ccc(-c2ccccc2)cc1", "relative growth": "inactive: 1.02"},
      {"smiles": "Cc1noc(C)c1S(=O)(=O)Nc1cccc2c1O[C@@H](CN(C)Cc1ccc3c(c1)OCO3)[C@@H](C)CN([C@H](C)CO)C2=O", "relative growth": "inactive: 1"},
      {"smiles": "COc1ccc(NC(=O)Nc2ccc3c(c2)C(=O)N([C@H](C)CO)C[C@H](C)[C@@H](CN(C)C(=O)CCC(F)(F)F)OCCCC[C@@H](C)O3)cc1", "relative growth": "inactive: 0.993"},
      {"smiles": "FC(F)(F)c1ccc(CSc2c[nH]c3ccccc23)cc1", "relative growth": "inactive: 0.766"},
      {"smiles": "C[C@H](CO)N1C[C@H](C)[C@@H](CN(C)S(=O)(=O)c2cn(C)cn2)Oc2ncc(C#CCN(C)C)cc2C1=O", "relative growth": "inactive: 1.01"},
      {"smiles": "Cc1noc(C)c1NC(=O)Nc1ccc2c(c1)C(=O)N([C@@H](C)CO)C[C@@H](C)[C@H](CN(C)C(=O)Nc1ccc(F)cc1)OCCCC[C@H](C)O2", "relative growth": "inactive: 1"},
      {"smiles": "COc1ccc([Si](C)(C)[C@@H]2[C@@H](CCn3cc([C@H](O)c4ccccc4)nn3)O[C@]3(C(=O)N(Cc4ccc(N5CCOC5=O)cc4)c4ccccc43)[C@H]2C)cc1", "relative growth": "inactive: 1.02"},
      {"smiles": "COc1ccc(CN(C)C[C@@H]2OCCCC[C@@H](C)Oc3ccc(NC(=O)Nc4c(C)noc4C)cc3C(=O)N([C@@H](C)CO)C[C@H]2C)cc1", "relative growth": "inactive: 1"},
      {"smiles": "Cc1noc(C)c1S(=O)(=O)N(C)C[C@@H]1Oc2ccc(NS(=O)(=O)c3ccccc3)cc2CC(=O)N([C@H](C)CO)C[C@H]1C", "relative growth": "inactive: 0.773"},
      {"smiles": "NC[C@H](c1ccco1)N1CCc2ccccc2C1", "relative growth": "inactive: 0.976"},
      {"smiles": "NCCc1c(C(=O)O)[nH]c2ccc(Br)cc12", "relative growth": "inactive: 1"},
      {"smiles": "COc1cc2ccnc(CCCN)c2cc1OC", "relative growth": "inactive: 0.993"},
      {"smiles": "COC(=O)C1=CO[C@@H](O[C@@H]2O[C@H](CO)[C@@H](O)[C@H](O)[C@H]2O)[C@@H]2[C@@](C)(O)[C@@H](OC(=O)/C=C/c3ccc(OC)c(OC)c3)C[C@]12O", "relative growth": "inactive: 0.998"},
      {"smiles": "C[C@@H]1CN([C@@H](C)CO)C(=O)c2cc(NC(=O)c3ccccc3)ccc2O[C@@H](C)CCCCO[C@H]1CN(C)S(=O)(=O)c1ccc(F)cc1", "relative growth": "inactive: 1"},
      {"smiles": "Cc1noc(C)c1NC(=O)Nc1ccc2c(c1)C(=O)N([C@@H](C)CO)C[C@H](C)[C@@H](CN(C)C(=O)NC(C)C)O2", "relative growth": "inactive: 0.962"},
      {"smiles": "C[C@H](CO)N1C[C@H](C)[C@@H](CN(C)C(=O)Nc2ccc(C(F)(F)F)cc2)Oc2ccc(NC(=O)Cn3cnnn3)cc2CC1=O", "relative growth": "inactive: 0.956"},
      {"smiles": "Cc1ccc(S[C@]2(C(=O)NCCCN(C)C)CC(=O)N(Cc3ccccc3C(F)(F)F)[C@@H]2c2ccc(CO)cc2I)cc1", "relative growth": "inactive: 0.948"},
      {"smiles": "COc1ccc(NC(=O)Nc2cccc3c2O[C@@H](CN(C)Cc2ccc(Oc4ccccc4)cc2)[C@@H](C)CN([C@@H](C)CO)C3=O)cc1", "relative growth": "inactive: 0.979"},
      {"smiles": "COCC(=O)Nc1ccc2c(c1)C(=O)N(C)C[C@H](OC)[C@H](C)CN(C(=O)Cc1cccnc1)[C@H](C)CO2", "relative growth": "inactive: 0.988"},
      {"smiles": "Cc1ccc(S(=O)(=O)Nc2ccc3c(c2)C(=O)N([C@@H](C)CO)C[C@@H](C)[C@H](CN(C)Cc2ccccc2)OCCCC[C@@H](C)O3)cc1", "relative growth": "inactive: 0.994"},
      {"smiles": "O=C(C[C@H]1CC[C@H]2[C@@H](COC[C@H](O)CN2C(=O)Nc2ccc(Cl)c(Cl)c2)O1)NCc1ccncc1", "relative growth": "inactive: 0.917"},
      {"smiles": "C[C@@H]1CCCCO[C@@H](CN(C)S(=O)(=O)c2ccc(F)cc2)[C@@H](C)CN([C@H](C)CO)C(=O)c2cc(NC(=O)c3ccccc3)ccc2O1", "relative growth": "inactive: 1.02"},
      {"smiles": "Cc1noc(C)c1NC(=O)N(C)C[C@H]1Oc2ccc(NS(=O)(=O)c3ccccc3)cc2C(=O)N([C@H](C)CO)C[C@@H]1C", "relative growth": "inactive: 0.998"},
      {"smiles": "C[C@@H](NC(=O)c1ccccc1)C(=O)NN", "relative growth": "inactive: 0.993"},
      {"smiles": "Cc1nc2c(C)cccc2c2c1COC2", "relative growth": "inactive: 0.898"},
      {"smiles": "C[C@H]1CN([C@@H](C)CO)C(=O)Cc2cc(NS(C)(=O)=O)ccc2O[C@@H]1CN(C)S(=O)(=O)c1cn(C)cn1", "relative growth": "inactive: 0.996"},
      {"smiles": "C[C@H]1CN([C@@H](C)CO)C(=O)Cc2cc(NC(=O)Cn3cnnn3)ccc2O[C@H]1CN(C)S(=O)(=O)c1cn(C)cn1", "relative growth": "inactive: 0.985"},
      {"smiles": "O=c1c(O)c(-c2cc(O)c(O)c(O)c2)oc2cc(O)cc(O)c12", "relative growth": "inactive: 1.05"},
      {"smiles": "CCCC(=O)Nc1ncnc2c1ncn2C1OC2COP(=O)([O-])OC2C1OC(=O)CCC.[Na+]", "note": "(stereo not drawn)", "relative growth": "inactive: 0.96"},
      {"smiles": "C[C@H](CO)N1C[C@H](C)[C@H](CN(C)S(=O)(=O)c2ccccc2)Oc2ccc(NS(=O)(=O)c3cn(C)cn3)cc2C1=O", "relative growth": "inactive: 1"},
      {"smiles": "Nn1c(=S)[nH]c2cc(C(=O)O)ccc2c1=O", "relative growth": "inactive: 1.02"},
      {"smiles": "Cc1noc(C)c1S(=O)(=O)Nc1ccc2c(c1)C(=O)N([C@@H](C)CO)C[C@H](C)[C@@H](CN(C)S(=O)(=O)c1cn(C)cn1)O2", "relative growth": "inactive: 0.982"},
      {"smiles": "CC(C)C(N)C(=O)O", "note": "(stereo not drawn)", "relative growth": "inactive: 0.948"},
      {"smiles": "C[C@H]1CN([C@@H](C)CO)C(=O)c2cccc(NC(=O)c3ccc(-c4nccs4)cc3)c2O[C@H]1CN(C)Cc1ccc(C(F)(F)F)cc1", "relative growth": "inactive: 0.966"},
      {"smiles": "CN1CCN(C(=O)C[C@H]2CC[C@@H]3[C@H](COC[C@@H](O)CN3C(=O)C3CCOCC3)O2)CC1", "relative growth": "inactive: 0.977"},
      {"smiles": "CCOC(=O)CCCCCC(=O)Nc1ccc2c(c1)C(=O)N([C@H](C)CO)C[C@@H](C)[C@@H](CN(C)S(=O)(=O)c1ccc(C)cc1)OCCCC[C@H](C)O2", "relative growth": "inactive: 1.06"}
    ]}
  ]
}
